The antibiotic and cytotoxicity screens of Wong et al. (2023)
Some of the results follow.

Key:
HSkMC = human skeletal muscle cells; assay: cytotoxicity call (relative viability < 0.9); details: 10 µM
HepG2 = assay: cytotoxicity call (relative viability < 0.9); details: 10 µM
S. aureus RN4220 = assay: growth inhibition call (relative growth <= 0.2); details: 50 µM

Compound | cytotoxicity call (HSkMC) | cytotoxicity call (HepG2) | growth inhibition call (S. aureus RN4220)
COc1ccccc1CNC(=O)C[C@@H]1C[C@@H]2c3cc(NC(=O)Cc4ccncc4)ccc3O[C@@H]2[C@H](CO)O1 | inactive | inactive | inactive
O=C(NO)c1ccc(-c2cn(CC[C@@H]3OC(=O)[C@H](Cc4ccccc4)N4CC5=CC(=O)[C@H](C6CC6)[C@H]5[C@H]34)nn2)cc1 | inactive | inactive | inactive
CC(C)NCC(O)COc1ccc(COCCOC(C)C)cc1.O=C(O)C=CC(=O)O (centres undefined) | inactive | inactive | inactive
CS(=O)(=O)c1cc(F)ccc1N | inactive | inactive | inactive
C[C@H](CO)N1C[C@H](C)[C@@H](CN(C)Cc2ccncc2)Oc2ccc(NC(=O)Nc3cccc4ccccc34)cc2CC1=O | inactive | active | inactive
C[C@@H]1CN([C@H](C)CO)C(=O)c2cc(NC(=O)CCCN(C)C)ccc2O[C@@H](C)CCCCO[C@@H]1CN(C)CC1CCCCC1 | inactive | inactive | inactive
CC(C(=O)O)c1ccc2c(c1)CC(=O)c1ccccc1S2 (centres undefined) | inactive | inactive | inactive
Cc1cc(CCC[C@H](CC(=O)NO)C(=O)N[C@H](C(=O)N[C@H](C)c2ccccc2)C(C)(C)C)ccc1-c1ccccc1 | inactive | active | inactive
CC(C)=CCC[C@@H](C)CCO | inactive | inactive | inactive
Nc1nc(=O)n(C2CSC(CO)O2)cc1F (centres undefined) | inactive | inactive | inactive
C[C@H](CO)N1C[C@H](C)[C@H](CN(C)C(=O)c2cnccn2)Oc2ncc(C#Cc3ccccn3)cc2C1=O | inactive | inactive | inactive
C[C@@H]1CN([C@@H](C)CO)C(=O)Cc2cc(NC(=O)CCN3CCOCC3)ccc2O[C@H]1CN(C)S(=O)(=O)c1ccc(F)cc1 | inactive | inactive | inactive
CCN1CCC(N(C)S(=O)(=O)c2cn(C)c(=O)n(C)c2=O)CC1 | inactive | inactive | inactive
COC(=O)c1c(C)cc(OC)cc1O | inactive | inactive | inactive
CCCCNC(=O)N1CCN(C)CC1 | inactive | inactive | inactive
CC(=O)NCCCC[C@@H]1NC(=O)[C@H]2C[C@@H](C(=O)NCCCCCCNC(=O)CS)[C@@H](c3ccc(O)cc3)N2C1=O | inactive | inactive | inactive
CC(=O)N(C)C[C@@H]1Oc2ncc(C#C[C@@H](C)O)cc2C(=O)N([C@H](C)CO)C[C@H]1C | inactive | inactive | inactive
CC(C)NC(=O)Nc1cccc2c1O[C@@H](CN(C)S(=O)(=O)c1cn(C)cn1)[C@@H](C)CN([C@@H](C)CO)C2=O | inactive | inactive | inactive
C[C@@H]1CN([C@H](C)CO)C(=O)Cc2cc(NC(=O)c3ccncc3)ccc2O[C@@H]1CN(C)Cc1ccc(Oc2ccccc2)cc1 | inactive | inactive | inactive
COc1ccc(NC(=O)N(C)C[C@H]2Oc3ccc(NC(=O)Nc4ccc(C(F)(F)F)cc4)cc3CC(=O)N([C@H](C)CO)C[C@H]2C)cc1 | inactive | inactive | inactive

Compound | cytotoxicity call (HSkMC) | cytotoxicity call (HepG2) | growth inhibition call (S. aureus RN4220)
Cc1noc(C)c1NC(=O)N(C)C[C@H]1OCCCC[C@@H](C)Oc2ccc(NC(=O)C3CCCCC3)cc2C(=O)N([C@@H](C)CO)C[C@H]1C | inactive | inactive | inactive
CC(C)(C)[S@@](=O)N1Cc2cc(C(=O)N[C@@H]3CCN(Cc4ccccc4)C3)nc(-c3cccc(-c4ccncc4)c3)c2[C@H]1CCO | inactive | inactive | inactive
Cc1ccc(S(=O)(=O)N(C)C[C@@H]2Oc3cc(C#Cc4ccccc4)ccc3S(=O)(=O)N([C@H](C)CO)C[C@@H]2C)cc1 | inactive | inactive | inactive
CN(C)CC(=O)N[C@H]1CC[C@H](CC(=O)O)O[C@@H]1CO | inactive | inactive | inactive
Cc1ccc(S(=O)(=O)N[C@H](C(=O)NCCn2cc(C(=O)NO)nn2)C(C)C)cc1 | inactive | inactive | inactive
CCS(=O)(=O)Nc1ccc2c(c1)C(=O)N(C)[C@H]1CC[C@H](CC(=O)NCCOC)O[C@H]1CO2 | inactive | inactive | inactive
O=C(C[C@@H]1CC[C@H]2[C@@H](COC[C@@H](O)CN2S(=O)(=O)c2ccc(Cl)cc2)O1)NCC1CCCCC1 | inactive | inactive | active
C[C@H](CO)N1C[C@H](C)[C@@H](CN(C)Cc2ccccc2)Oc2ccc(NC(=O)Nc3ccc(C(F)(F)F)cc3)cc2CC1=O | active | active | inactive
Cc1noc(C)c1NC(=O)N(C)C[C@H]1Oc2ccc(NC(=O)c3ccncc3)cc2CC(=O)N([C@@H](C)CO)C[C@H]1C | inactive | inactive | inactive
CO[C@@]1(C2=NCCN2)COc2ccccc2O1 | inactive | inactive | inactive
C[C@H](CO)N1C[C@H](C)[C@@H](CN(C)C(=O)Nc2cccc3ccccc23)OCCCC[C@H](C)Oc2ccc(NC(=O)Cc3ccccc3)cc2C1=O | inactive | inactive | inactive
C[C@H](CO)N1C[C@H](C)[C@H](CN(C)C(=O)Nc2ccc(C(F)(F)F)cc2)OCCCC[C@H](C)Oc2ccc(NS(=O)(=O)c3ccc(F)cc3)cc2C1=O | inactive | inactive | inactive
CC(=O)OC1CCC2(C)C(CCC3(C)C2CC=C2C4CC(C)(C)CCC4(C(=O)O)CCC23C)C1(C)C (centres undefined) | inactive | inactive | inactive
C[C@@H]1CCCCO[C@@H](CN(C)Cc2ccc(C(F)(F)F)cc2)[C@H](C)CN([C@@H](C)CO)C(=O)c2cc(N(C)C)ccc2O1 | inactive | inactive | inactive
O=C(C[C@@H]1C=C[C@H](NC(=O)Cc2ccccn2)[C@@H](CO)O1)NCCCN1CCOCC1 | inactive | inactive | inactive
C[C@H](CO)N1C[C@H](C)[C@H](CN(C)Cc2ccc(C(=O)Nc3ccccc3N)cc2)Oc2ccc(NC(=O)CCC(F)(F)F)cc2CC1=O | inactive | inactive | inactive
CC(C)NCC(O)c1cc(O)cc(O)c1 (centres undefined) | inactive | active | inactive
CCOC[C@]12Cc3cnn(-c4ccc(F)cc4)c3C=C1CCN(S(=O)(=O)c1ccc(C(F)(F)F)cc1)C2 | inactive | inactive | inactive
C[C@@H]1CCCCO[C@H](CN(C)Cc2ccc3c(c2)OCO3)[C@H](C)CN([C@H](C)CO)C(=O)c2cc(NC(=O)CCC(F)(F)F)ccc2O1 | inactive | inactive | inactive
Cc1c(NC(=O)c2cc3c(s2)CCCC3)cccc1-c1cn(C)c(=O)c(Nc2ccc([C@H]3C(=O)N(C)CCN3C)cc2)n1 | inactive | inactive | inactive

Compound | cytotoxicity call (HSkMC) | cytotoxicity call (HepG2) | growth inhibition call (S. aureus RN4220)
C[C@H](CO)N1C[C@H](C)[C@H](CN(C)C(=O)Nc2ccc(C(F)(F)F)cc2)OCCCC[C@H](C)Oc2ccc(NC(=O)c3ccccc3)cc2C1=O | inactive | inactive | inactive
C[C@@H]1CN([C@H](C)CO)C(=O)c2cc(NS(=O)(=O)c3cn(C)cn3)ccc2O[C@@H](C)CCCCO[C@@H]1CN(C)C(=O)c1ccncc1 | inactive | inactive | inactive
C[C@@H]1CN([C@H](C)CO)C(=O)c2cc(C#C[C@@H](C)O)cnc2O[C@@H]1CN(C)Cc1cncnc1 | inactive | inactive | inactive
COc1ccc(S(=O)(=O)Nc2ccc3c(c2)CC(=O)N([C@H](C)CO)C[C@@H](C)[C@H](CN(C)S(C)(=O)=O)O3)cc1 | inactive | inactive | inactive
COCCN(C)C(=O)c1ccc2nnc([C@H]3CN(S(C)(=O)=O)CCN3C)n2c1 | inactive | inactive | inactive
C[C@H](CO)N1C[C@H](C)[C@H](CN(C)Cc2ccccc2)Oc2ccc(NS(=O)(=O)c3cn(C)cn3)cc2CC1=O | inactive | inactive | inactive
CC=Cc1ccc2n(c1=O)C[C@@H]1[C@@H](CO)[C@H](C(=O)NCCc3cn(C)cn3)N(C(=O)C3CC3)[C@H]21 | inactive | inactive | inactive
Cn1nnc2c(N3CCCC3)ncnc21 | inactive | inactive | inactive
C[C@@H]1CN([C@@H](C)CO)S(=O)(=O)c2ccc(C#Cc3ccccc3F)cc2O[C@H]1CN(C)CC1CC1 | inactive | inactive | inactive
C[C@@H]1CN([C@@H](C)CO)C(=O)c2cccc(NC(=O)c3ccncc3)c2O[C@@H]1CN(C)Cc1ccc(C(=O)O)cc1 | inactive | inactive | inactive
C[C@H]1CN([C@@H](C)CO)C(=O)CCCn2cc(nn2)CO[C@@H]1CN(C)Cc1ccc2c(c1)OCCN2C | inactive | inactive | inactive
Cc1noc(C)c1S(=O)(=O)Nc1cccc2c1O[C@@H](CN(C)C(=O)NC1CCCCC1)[C@@H](C)CN([C@H](C)CO)C2=O | inactive | inactive | inactive
COc1ccc(S(=O)(=O)N(C)C[C@@H]2Oc3ccc(NS(=O)(=O)c4cccs4)cc3C(=O)N([C@H](C)CO)C[C@H]2C)cc1 | inactive | inactive | inactive
C[C@H]1CCCCO[C@H](CN(C)Cc2ccc(C(=O)O)cc2)[C@@H](C)CN([C@@H](C)CO)C(=O)c2cc(NC(=O)C3CCCCC3)ccc2O1 | inactive | inactive | inactive
C[C@@H]1CCCCO[C@H](CN(C)S(=O)(=O)c2ccc(Cl)cc2)[C@H](C)CN([C@H](C)CO)C(=O)c2cc(NC(=O)c3ccncc3)ccc2O1 | inactive | inactive | inactive
CC(=O)N1CCc2c(sc(NC(=O)CN3C(=O)CCC3=O)c2C(N)=O)C1 | inactive | inactive | inactive
C[C@H]1CCCCO[C@H](CN(C)Cc2ccccc2)[C@@H](C)CN([C@@H](C)CO)C(=O)c2cc(NC(=O)c3ccccc3)ccc2O1 | inactive | inactive | inactive
COc1ccc(CN(C)C[C@H]2OCCCC[C@@H](C)Oc3ccc(NS(=O)(=O)c4cccs4)cc3C(=O)N([C@H](C)CO)C[C@H]2C)cc1 | inactive | inactive | inactive
